Measurements as given in article PMC4450067 (PLoS Pathogens, 2015).

Test system: stress granules in BHK cells
Assay type: cell-based

Structure (SMILES): O=[As][O-].[Na+] [sodium arsenite]
- cells with SGs upon sodium arsenite: Approximately 97%
